# Experimental data: PubChem BioAssay (Tox21)
# Where “and” joins values, the source holds several entries; their conditions need not be identical. Equal values may be shown once. The shares of active, inactive and inconclusive entries below differ from those in the screen. Potencies of inconclusive entries are doubtful fits and often do not repeat. Where a structure was tested more than once in an assay, its records may differ in their call. Calls of active or inactive are those of the source. Unless noted, the call rests on the fitted dose curve; in most records, active means well fitted curve in the direction sought with a large enough effect in the repeat runs; inconclusive means weak or mixed curves; inactive means no such curve, though single readings can be large; an effect the other way counts as inactive or inconclusive.
# Tests used:
# [1] = A CellTox Green Cytotoxicity Assay to monitor cytotoxicity in HEK293 cells - 32 hour (AID 1224881); further: nearly all actives have a fitted effect of over 40% in size
# How it was run: (§1)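 Seeding of HEK293 cells together with cytotoxicity dye preceded a 5 h incubation at 37 C/5% CO2. Test compounds in DMSO were then added and fluorescence monitored across 40 h.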
# [2] = A CellTox Green Cytotoxicity Assay to monitor cytotoxicity in HepG2 cells - 0 hour (AID 1224882); further: nearly all actives have a fitted effect of over 35% in size
# How it was run: (§2)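 Nonlytic assay: viable cells exclude the dye, so fluorescence scales with cell death. HepG2 at 600 cells/well, compounds added after 5 h, signal read across 40 h.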
# [3] = qHTS RealTime-Glo MT Cell Viability Assay in HEK293 cells - 8 hour (AID 1224887); further: nearly all actives have a fitted effect of over 50% in size
# How it was run: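 Tox21 screen in HEK293 using RealTime-Glo MT chemistry, with cells and reagent co-dispensed. Luminescence proportional to viable cell number was captured at intervals during 40 h compound exposure at 37 C.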
# [4] = A CellTox Green Cytotoxicity Assay to monitor cytotoxicity in HEK293 cells - 16 hour (AID 1224888); further: nearly all actives have a fitted effect of over 35% in size
# How it was run: as §1
# [5] = A CellTox Green Cytotoxicity Assay to monitor cytotoxicity in HepG2 cells - 8 hour (AID 1224890); further: nearly all actives have a fitted effect of over 45% in size
# How it was run: as §2
# [6] = A CellTox Green Cytotoxicity Assay to monitor cytotoxicity in HepG2 cells - 32 hour (AID 1224883); further: nearly all actives have a fitted effect of over 50% in size
# How it was run: as §2
# [7] = A CellTox Green Cytotoxicity Assay to monitor cytotoxicity in HEK293 cells - 8 hour (AID 1224884); further: nearly all actives have a fitted effect of over 35% in size
# How it was run: as §1
# [8] = qHTS assay to identify small molecule antagonists of the androgen receptor (AR) signaling pathway using the MDA cell line in the presence of 0.5 nM R1881 - cell viability counter screen (AID 1259242); further: nearly all actives have a fitted effect of over 45% in size
# How it was run: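 R1881 at 0.5 nM final stimulated MDA-kb2 cells during 16 hr compound treatment at 37C. Cytotoxicity read: CellTiter-Fluor fluorescence after 30 min.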
# [9] = target: Androgen receptor (Homo sapiens) (UniProt P10275); experiment: qHTS assay to identify small molecule antagonists of the androgen receptor (AR) signaling pathway using the MDA cell line in the presence of 0.5 nM R1881 (AID 1259243); further: nearly all actives have a fitted effect of over 50% in size
# Chain of UniProt P10275 (P10275 whole entry, looked up): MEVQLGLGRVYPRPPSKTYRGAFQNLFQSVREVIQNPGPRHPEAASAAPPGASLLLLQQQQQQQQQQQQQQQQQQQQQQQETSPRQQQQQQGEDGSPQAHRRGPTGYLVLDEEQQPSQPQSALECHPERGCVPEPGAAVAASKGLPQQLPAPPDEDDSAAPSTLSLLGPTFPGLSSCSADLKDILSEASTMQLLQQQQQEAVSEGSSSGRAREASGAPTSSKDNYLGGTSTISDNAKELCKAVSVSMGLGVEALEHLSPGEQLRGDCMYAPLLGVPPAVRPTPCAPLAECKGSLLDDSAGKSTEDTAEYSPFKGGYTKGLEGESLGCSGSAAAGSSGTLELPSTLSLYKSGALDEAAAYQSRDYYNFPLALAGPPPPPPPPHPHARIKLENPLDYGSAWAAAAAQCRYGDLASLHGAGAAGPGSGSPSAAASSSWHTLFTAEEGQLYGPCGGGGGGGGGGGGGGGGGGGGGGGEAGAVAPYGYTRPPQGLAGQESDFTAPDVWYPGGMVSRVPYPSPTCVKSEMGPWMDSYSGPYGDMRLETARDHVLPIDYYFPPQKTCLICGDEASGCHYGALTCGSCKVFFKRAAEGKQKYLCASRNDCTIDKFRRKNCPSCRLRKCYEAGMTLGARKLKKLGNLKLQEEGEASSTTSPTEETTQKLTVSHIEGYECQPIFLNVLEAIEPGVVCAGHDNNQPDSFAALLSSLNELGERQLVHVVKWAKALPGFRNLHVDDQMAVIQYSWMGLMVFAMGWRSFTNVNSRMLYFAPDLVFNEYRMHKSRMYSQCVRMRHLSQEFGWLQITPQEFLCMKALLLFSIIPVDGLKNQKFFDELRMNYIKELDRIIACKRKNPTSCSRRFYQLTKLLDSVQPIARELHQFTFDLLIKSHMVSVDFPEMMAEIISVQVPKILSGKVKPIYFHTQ
# How it was run: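 We exposed MDA-kb2 cells to compounds under 0.5 nM R1881 stimulation for 16 hr at 37C and quantified MMTV-driven luciferase by luminescence.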
# [10] = target: Estrogen receptor (Homo sapiens) (UniProt P03372); experiment: qHTS assay to identify small molecule antagonists of the estrogen receptor alpha (ER-alpha) signaling pathway using the BG1 cell line in the presence of 0.1 nM 17-beta-estradiol (AID 1259244); further: nearly all actives have a fitted effect of over 50% in size
# Chain of UniProt P03372 (P03372 whole entry, looked up): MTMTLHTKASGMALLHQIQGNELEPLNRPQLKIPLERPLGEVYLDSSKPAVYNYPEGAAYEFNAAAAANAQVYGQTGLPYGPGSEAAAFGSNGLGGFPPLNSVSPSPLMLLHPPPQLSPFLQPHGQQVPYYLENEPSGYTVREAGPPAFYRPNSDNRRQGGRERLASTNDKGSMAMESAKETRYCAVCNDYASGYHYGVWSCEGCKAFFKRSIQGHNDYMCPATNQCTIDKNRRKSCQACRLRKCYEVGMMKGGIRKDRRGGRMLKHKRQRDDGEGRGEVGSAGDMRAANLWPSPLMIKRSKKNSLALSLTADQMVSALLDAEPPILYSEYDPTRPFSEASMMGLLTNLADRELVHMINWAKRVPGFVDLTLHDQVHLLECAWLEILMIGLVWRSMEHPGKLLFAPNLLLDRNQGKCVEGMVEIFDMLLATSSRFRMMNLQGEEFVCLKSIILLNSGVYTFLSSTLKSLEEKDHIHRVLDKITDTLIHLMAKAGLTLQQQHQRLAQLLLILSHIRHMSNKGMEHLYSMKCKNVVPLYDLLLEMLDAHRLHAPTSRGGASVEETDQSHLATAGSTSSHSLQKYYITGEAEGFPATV
# How it was run: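 VM7Luc4E2; 4xERE-luciferase; 0.1 nM E2 final; 22 h co-incubation, 37C; ONE-Glo luminescence after 30 min at room temperature.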
# [11] = qHTS assay to identify small molecule agonists of the sonic hedgehog signaling (Shh) pathway - cell viability counter screen (AID 1259366); further: nearly all actives have a fitted effect of over 50% in size
# How it was run: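 Cells are plated at 2,000 per well and left 4hr at 37C, 5% CO2 before compound addition. After 23hr of treatment, CellTiter-Fluor reagent is added for 1hr at 37C and fluorescence is measured.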
# [12] = qHTS assay to identify small molecule antagonists of the sonic hedgehog signaling (Shh) pathway - cell viability counter screen (AID 1259367); further: nearly all actives have a fitted effect of over 55% in size
# How it was run: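 Using CellTiter-Fluor, viability of Gli1-Luc reporter 3T3 cells is read by fluorescence in the wells used for the Shh luciferase assay. Treatment lasts 23 hr with conditioned medium, then reagent 1 hr at 37C.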
# [13] = qHTS RealTime-Glo MT Cell Viability Assay in HepG2 cells - 0 hour (AID 1224889); further: nearly all actives have a fitted effect of over 50% in size
# How it was run: (§3)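 HepG2 cells (600/well) were dispensed with RealTime-Glo reagents, incubated 5 h at 37 °C, then treated with compounds in DMSO for up to 40 h. Nonlytic NanoLuc luminescence reflecting viable cells was read at each stated time point.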
# [14] = qHTS assay to identify small molecule phospholipidosis (PLD) inducers (AID 1259344; active means well fitted curve in the direction sought with a large enough effect; inconclusive means small, poorly fitted or top-dose-only effect, or another doubt; inactive means no such curve, though single readings can be large; an effect the other way counts as inactive or inconclusive); conditions: HepG2 phospholipidosis, LipidTOX Red imaging, 24 h; series mostly up to 38.3 µM
# How it was run: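 Fluorescent phospholipid staining (LipidTOX Red) measured by automated microscopy in fixed HepG2 cells after 24 h treatment; nuclei counterstained with Hoechst 33342; amiodarone as reference inducer.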
# [15] = qHTS RealTime-Glo MT Cell Viability Assay in HepG2 cells - 16 hour (AID 1224885); further: nearly all actives have a fitted effect of over 50% in size
# How it was run: as §3
# [16] = qHTS assay to identify small molecule HDAC inhibitors (AID 1259364);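 further: wild-type HCT-116 cells with endogenous class I/II HDAC activity; nearly all actives have a fitted effect of over 45% in size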
# How it was run: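 Relative class I and II HDAC activity is taken from the luminogenic signal in HCT-116 cells, with compound exposure 2 hr and reagent development 30 min at room temperature.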
# [17] = qHTS RealTime-Glo MT Cell Viability Assay in HEK293 cells - 24 hour (AID 1224886); further: nearly all actives have a fitted effect of over 50% in size
# How it was run: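 HEK293 cells seeded with NanoLuc/prosubstrate reagent, rested 5 h at 37 C, then dosed and kept at 37 C up to 40 h. Nonlytic real-time luminescence from viable cells read at 0, 8, 16, 24, 32 and 40 h.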
# Potency means the concentration at half of the fitted maximal effect; tags describe the fitted curve by direction and shape.
smiles,measurement,setting,value
c1ccc(CCNc2nc(-c3ccccc3)cs2)cc1,Potency,[1],"inconclusive: 10.7 µM [activator, single point]"
same,Potency,[2],"inconclusive: 13.4 µM [activator, single point]"
same,Potency,[3],"inconclusive: 21.3 µM [cytotoxic, partial curve]"
same,Potency,[4],"inconclusive: 13.4 µM [activator, single point]"
same,Potency,[5],"inconclusive: 13.4 µM [activator, single point]"
Cc1ccccc1C(=O)N1CC/C(=N\OS(=O)(=O)O)c2ccc(Cl)cc21,Potency,[1],inactive
same,Potency,[2],"inconclusive: 23.9 µM [activator, single point]"
same,Potency,[6],"inconclusive: 26.8 µM [activator, single point]"
same,Potency,[5],"inconclusive: 26.8 µM [activator, single point]"
Cc1ccc2ncccc2c1,Potency,[1],inactive
c1ccc2c(c1)-c1ccc3ccc4cccc5cc-2c1c3c45,Potency,[1],"inconclusive: 26.8 µM [activator, single point]"
same,Potency,[6],"inconclusive: 19 µM [activator, partial curve]"
same,Potency,[7],"inconclusive: 26.8 µM [activator, partial curve, poor fit]"
same,Potency,[4],inactive
same,Potency,[8],"inconclusive: 29.8 µM [rising, partial curve, poor fit]"
same,Potency,[9],inconclusive: 3.76 µM [inhibitor]
same,Potency,[10],"inconclusive: 0.211 µM [inhibitor, full curve]"
same,Potency,[11],"inconclusive: 13.3 µM [rising, partial curve]"
same,Potency,[12],"inconclusive: 33.5 µM [rising, partial curve]"
O=C(c1ccco1)N1CCNCC1,Potency,[1],inactive
CCN(CC)CCc1nc(-c2ccccc2)no1,Potency,[1],inactive
same,Potency,[6],inactive
CC1=CCCC(C)(C)C12CCC(C)O2 (centres undefined),Potency,[1],inactive
COC(=O)N[C@H](C(=O)N[C@@H](Cc1ccccc1)[C@@H](O)CN(Cc1ccc(-c2ccccn2)cc1)NC(=O)[C@@H](NC(=O)OC)C(C)(C)C)C(C)(C)C,Potency,[1],inactive
same,Potency,[2],"inconclusive: 26.8 µM [activator, single point]"
same,Potency,[6],"inconclusive: 26.8 µM [activator, single point]"
same,Potency,[13],"inconclusive: 26.8 µM [rising, single point]"
same,Potency,[5],"inconclusive: 26.8 µM [activator, single point]"
same,Potency,[14],"inconclusive: 15.8 µM [activator, single point]"
same,Potency,[12],"inconclusive: 26.6 µM [cytotoxic, partial curve]"
Cc1ccc(C(=O)C(=O)O)cc1C,Potency,[1],"inconclusive: 2.13 µM [activator, partial curve, poor fit]"
O=C(O)c1ccco1,Potency,[1],inactive
Cc1ccc(Cl)c(OCC(O)CNC(C)(C)C)c1 (centres undefined),Potency,[1],inactive
CC/C=C\CCOC(=O)CCCCC,Potency,[1],"inconclusive: 49 µM [activator, partial curve, poor fit]"
same,Potency,[2],"inconclusive: 54.9 µM [activator, partial curve, poor fit]"
same,Potency,[7],"inconclusive: 54.9 µM [activator, partial curve]"
same,Potency,[15],"inconclusive: 21.9 µM [cytotoxic, single point]"
same,Potency,[13],"inconclusive: 21.9 µM [cytotoxic, single point]"
same,Potency,[5],"inconclusive: 54.9 µM [activator, single point]"
Cc1ncc([N+](=O)[O-])n1C,Potency,[1],"inconclusive: 54.1 µM [activator, single point]"
same,Potency,[6],"inconclusive: 34.2 µM [activator, partial curve]"
same,Potency,[7],active: 48.3 µM
same,Potency,[4],"inconclusive: 54.1 µM [activator, single point]"
same,Potency,[5],"inconclusive: 43 µM [activator, single point]"
same,Potency,[10],inactive
CCCCOc1cc(C(=O)OCCN(CC)CC)ccc1N,Potency,[1],"inconclusive: 3.01 µM [activator, partial curve, poor fit]"
same,Potency,[2],"inconclusive: 26.8 µM [activator, single point]"
same,Potency,[6],"inconclusive: 26.8 µM [activator, single point]"
same,Potency,[5],"inconclusive: 26.8 µM [activator, single point]"
same,Potency,[14],inactive
same,Potency,[16],inactive
C/C=C/c1ccc(OCC)c(O)c1,Potency,[1],"inconclusive: 21.9 µM [activator, single point]"
same,Potency,[6],"inconclusive: 0.195 µM [activator, full curve, poor fit]"
same,Potency,[7],"inconclusive: 21.9 µM [activator, single point]"
same,Potency,[4],"inconclusive: 21.9 µM [activator, single point]"
same,Potency,[16],"inconclusive: 30.6 µM [inhibitor] and inconclusive: 48.6 µM [inhibitor, partial curve]"
c1ccc(CN(Cc2ccccc2)Cc2ccccc2)cc1,Potency,[1],inactive
CN1[C@@H]2CC[C@@H]1CC(OC(=O)C(CO)c1ccccc1)C2 (some centres undefined),Potency,[1],"inconclusive: 20.9 µM [activator, partial curve]"
O=C1CCC(C2CCCCC2)CC1,Potency,[1],active: 43.6 µM
same,Potency,[2],active: 38.9 µM
same,Potency,[6],active: 38.9 µM
same,Potency,[17],"inconclusive: 24.5 µM [cytotoxic, full curve, poor fit]"
same,Potency,[3],"inconclusive: 0.195 µM [cytotoxic, partial curve, poor fit]"
same,Potency,[11],inactive
